PubChem BioAssay AID1814 (Broad Institute, 2009)
About 22,000 (7.3%) of roughly 300,000 compounds were called active. The shares of active, inactive and inconclusive entries below differ from those in the screen. Rule as the data show it: active = activity score below about -60%; inconclusive = mostly about -28% to -61%; inactive = positive scores.

Assay: Activators via SNCA 5'UTR binding, MLPCN (AID 1814)
Conditions: alpha-synuclein 5'UTR reporter, activators screen; active compounds read low; tested at 7.5 µM

Compound | activity score
COc1c(Cl)cc(C(=O)Nc2ccccc2C(=O)O)cc1Cl | inconclusive: -58.3%
CCOC(=O)C(=O)CC(=O)c1ccc2c(c1)OCCO2 | inconclusive: -40.3%
Cc1ccc(NC(=O)N(C)c2ccccc2)cc1 | inconclusive: -58.6%
COc1ccc(-c2nnc(NC(=O)c3ccc4c(c3)OCCO4)o2)cc1 | inactive: 105%
COc1ccccc1NC(=O)/C(=N/OCc1ccc(F)cc1)C(C)=O | inconclusive: -56.3%
C/C(=N/Nc1cc(-c2ccccc2)nc(-c2ccccc2)n1)c1ccc(O)cc1 | inconclusive: -54.7%
CCOc1cccc(C(=O)Nc2nnc(-c3cccs3)s2)c1 | inconclusive: -58.6%
CN1CCN(c2ccc(-c3ccc4ccccc4n3)cc2)CC1 | inactive: 112%
COC(=O)c1sccc1N/N=C(\C)c1ccc(F)c(Cl)c1 | inconclusive: -56.9%
CCOC(=O)c1csc(N/N=C2\CCc3ccccc32)n1 | inconclusive: -59.6%
CN(CC(=O)N1CCN(c2ccccn2)CC1)S(=O)(=O)c1ccccc1 | inconclusive: -59.2%
c1cncc(CNc2ccc3c(c2)OCO3)c1 | inconclusive: -51.6%
COc1ccc(NC(=S)NC(=O)c2ccccc2)cn1 | active: -138%
CC(=O)Nc1ccc(/C=N/Nc2nncc3ccccc23)cc1 | active: -126%
C/C(=N\NC(=O)c1ccccc1F)c1ccccn1 | inactive: 83%
Cn1c(CN2CCOCC2)nc2cc(NC(=O)c3ccc(F)cc3)ccc21 | inconclusive: -54.1%
CCc1ccc(NC(=O)COc2ccc3c(c2)OCO3)cc1 | active: -73.8%
Cn1cccc1/C=C1\SC(=O)N(c2ccc(O)cc2)C1=O | active: -144%
CCN(CC)S(=O)(=O)c1cccc(C(=O)Nc2ccccc2)c1 | inconclusive: -57.8%
NS(=O)(=O)c1ccc(Nc2ncccc2[N+](=O)[O-])cc1 | inconclusive: -45.4%
O=C1NC(=Nc2cccc(O)c2)S/C1=C\c1cccc([N+](=O)[O-])c1 | inconclusive: -58.6%
CCOC(=O)c1cnn2cc(-c3[nH]ncc3[N+](=O)[O-])cnc12 | inconclusive: -41.9%
O=C(COc1ccccc1)Nc1cccc2nsnc12 | inconclusive: -58.6%

Compound | activity score
C=CCn1c(O)c(N=NC(=S)Nc2ccc(OC)c(Cl)c2)c2ccccc21 | inactive: 60.8%
Cc1cc(C)n(-c2nc(Nc3ccccc3C(F)(F)F)nc(-n3nc(C)cc3C)n2)n1 | inactive: 61.9%
COc1cccc(-c2csc(NC(=O)Oc3ccccc3)n2)c1 | inconclusive: -61.3%
O=C(/C=C/c1cccs1)NCc1cccs1 | inconclusive: -54.6%
COC(=O)c1c(-c2ccccc2)csc1NC(=O)c1c(-c2ccccc2)noc1C | inactive: 65.4%
CCOC(=O)c1sc(NC(=O)C(OC(C)=O)c2ccccc2)nc1C (configuration not stated) | inconclusive: -47.3%
O=C(NC(=S)Nc1nc(-c2ccc([N+](=O)[O-])cc2)cs1)c1ccco1 | inconclusive: -60.7%
COc1ccc(S(=O)(=O)NCc2csc(-c3cccnc3)n2)cc1 | inconclusive: -48.2%
COc1cccc(C(=O)NNC(=O)/C=C/c2ccccc2)c1 | inconclusive: -47%
CC1CCc2c(sc(Nc3nc4c(F)cccc4s3)c2C(N)=O)C1 (configuration not stated) | inconclusive: -51%
Nc1c(C(=O)NCc2ccco2)sc2nc3c(cc12)C(=O)CCC3 | active: -94.4%
CCOC(=O)c1sc(NC(=S)NC(=O)C2CCCC2)cc1C | inconclusive: -52.9%
CCOc1ccccc1NC(=O)/C(C#N)=C/c1c(C)nn(-c2ccccc2)c1Cl | inconclusive: -46.1%
CC(C)CC(=O)NC(c1cccs1)c1ccc2cccnc2c1O (configuration not stated) | inactive: 74%
CN1CCN(c2ccc(NC(=O)c3ccc([N+](=O)[O-])o3)cc2Cl)CC1 | inactive: 60.5%
Clc1ccc2nc(CSc3nnc4ccccn34)cn2c1 | inconclusive: -56.6%
Cc1ccc(C#N)c(SCc2nnc(-c3ccc(Cl)cc3)o2)n1 | inactive: 89.7%
CCNC(=S)NNC(=O)c1cc(-c2cccc(OCC)c2)nc2ccccc12 | active: -89%
N#Cc1c(-c2ccc(F)cc2)ccnc1N1CCOCC1 | inconclusive: -43.2%
Nc1ccccc1SC1CC(=O)N(c2ccc3c(c2)OCCO3)C1=O (configuration not stated) | active: -78.1%
COc1ccc(NC(=O)Nc2ccc3nccnc3c2)cc1 | active: -122%
COCCOC(=O)c1[nH]c2c(c1C)C(=O)CC(c1cccs1)C2 (configuration not stated) | inactive: 63.6%
O=C(Nc1ccc(CN2CCOCC2)cc1)c1ccc(Br)cc1 | active: -173%

Compound | activity score
CCn1nc(C)cc1C(=O)N1CCc2c([nH]c3ccccc23)C1c1cc(F)ccc1F (configuration not stated) | inconclusive: -61%
Cc1cc(C(=O)Nc2sc3c(c2C#N)CCC3)no1 | active: -107%
Cc1ccc(N/N=C2\COC(C)(C)CC2=O)cc1 | active: -141%
O=C(NCc1ccc2c(c1)OCO2)C(=O)Nc1ccccc1 | inconclusive: -59.7%
CC1CCN(C(=O)c2cc(-c3ccccc3O)on2)CC1 | active: -82%
COC(=O)CCC(=O)OC1(C)C(=O)C2=CN(Cc3ccc4c(c3)OCO4)C(c3ccc(OC)cc3)=CC2=C(Br)C1=O (configuration not stated) | inconclusive: -51.1%
COc1ccc(/C=C2\SC(=O)N(CCNC(=O)C3CCN(S(=O)(=O)c4cccs4)CC3)C2=O)cc1 | active: -113%
CC(=O)c1cccc(NC(=O)c2cc(Cl)sc2Cl)c1 | inconclusive: -44.3%
C=CC(=O)NN(C)c1ncc(C(F)(F)F)cc1Cl | inconclusive: -54.8%
CC(=O)Nc1cc(C(=O)O)ccc1S(=O)(=O)c1ccc(Cl)cc1 | inconclusive: -52.6%
O=C(O)c1ccc(N/N=C/c2ccc3c(c2)OCO3)cc1 | inactive: 94.3%
O=C(Nc1ncccc1O)c1ccc(Oc2ccccc2)cc1 | active: -198%
C/C(=N\NC(=O)Cc1cccn1C)c1cccs1 | inconclusive: -40.4%
COc1cc(CNC(C)C23CC4CC(CC(C4)C2)C3)ccc1OCC(=O)NC(C)(C)C (configuration not stated) | inconclusive: -53.4%
Cc1ccnc2nc(NC(=O)c3ccco3)nn12 | active: -80.8%
CCOc1ccc(C(=O)Nc2nnc(C(C)C)s2)cc1OCC | inconclusive: -53.4%
CC(C)C(=O)N1CCN(c2ccc(NC(=S)NC(=O)c3cc4ccccc4o3)cc2)CC1 | inconclusive: -53.8%
CC(=O)[C@@]1(O)C(C)CC2C3C=C(C)C4=Cc5c(cnn5-c5ccccc5)C[C@]4(C)C3C(O)C[C@@]21C (some centres not stated) | inactive: 80.8%
COc1ccccc1NC(=O)c1ccc2nc(-c3ccccc3)c(-c3ccccc3)nc2c1 | inconclusive: -41.3%
O=[N+]([O-])c1ccc(Sc2ccccn2)nc1 | inconclusive: -46.6%
O=C(NC1CCCCC1)C(c1cccs1)N(C(=O)c1ccco1)c1ccc2c(c1)OCCO2 (configuration not stated) | inconclusive: -56.8%
c1ccc(CNc2ccc3ccccc3n2)nc1 | inconclusive: -47%
COc1ccc(C(=O)C(CCC(CNC(C)(C)C)C(=O)c2ccc(OC)cc2)CNC(C)(C)C)cc1 (configuration not stated) | inactive: 65.5%

Compound | activity score
O=c1c2ccccc2nc(N/N=C/c2c(O)ccc3ccccc23)n1O | inactive: 82.2%
CC(=O)c1ccc(N(C(=O)Cn2nnc3ccccc32)C(C(=O)NCc2ccccc2)c2ccccn2)cc1 (configuration not stated) | active: -106%
CCc1ccc(/C=C2\SC(=S)N(CCCC(=O)Nc3ccc(C(=O)O)cc3)C2=O)cc1 | inactive: 109%
CCn1cc(C(=O)NCc2ccco2)c(=O)c2cc(S(=O)(=O)N3CC(C)CC(C)C3)ccc21 (configuration not stated) | inactive: 81.9%
COc1ccc(N(CC(=O)NCc2ccc3c(c2)OCO3)C(=O)c2csnn2)cc1 | inconclusive: -61%
O=c1cc(-c2ccccc2)[nH]c2cc(F)ccc12 | inactive: 93.3%
COc1ccc(NC(=O)c2cc(-c3cc(C)c(C)cc3O)n[nH]2)c(OC)c1 | inconclusive: -36.6%
CCCSc1nsc(N)n1 | inconclusive: -41.8%
CC(=O)c1cccc(NC(=O)c2cc(-c3ccc(F)cc3)on2)c1 | inconclusive: -50.4%
COc1ccc(-c2nc3ccccc3o2)cc1OC | active: -82.4%
Cc1ccc(C(=O)NCCN2CCNC2=O)cc1 | inconclusive: -37.7%
CCOC(=O)C(NC(=O)Nc1ccc(Cl)cn1)(Oc1ccccc1)C(F)(F)F (configuration not stated) | inconclusive: -46.5%
O=[N+]([O-])c1ccccc1-c1ccc(C(=S)N2CCCC2)o1 | active: -132%
O=C(NCc1ccc(Cl)cc1)c1noc2c1CCCCC2 | inconclusive: -49.2%
O=C(N/N=C/c1ccc([N+](=O)[O-])o1)c1sc2ccccc2c1Cl | inconclusive: -58.5%
COc1ccc(NC(=O)C2CCN(C(=O)[C@@H]3Cc4ccccc4CN3)CC2)cc1 | inconclusive: -38.1%
Cc1cc(C)c2c(N)c(C(=O)Nc3ccc(F)cc3)sc2n1 | inconclusive: -59.6%
CN(C)c1ncnc2c1ncn2C1OC(CO)C(O)C1O (configuration not stated) | inactive: 108%
COc1ccc(CNn2c(C)nc3ccccc3c2=O)cc1 | inconclusive: -60.6%
O=C1Nc2ccccc2Oc2cc([N+](=O)[O-])cc(Oc3ccccc3)c21 | inconclusive: -41.7%
CC(C)(C)c1ccc(Oc2ccc(NC(=O)c3ccccc3C(=O)O)cn2)cc1 | inactive: 85.7%
O=C(NNC(=O)c1cnccn1)c1ccc(Cl)c(Cl)c1 | inactive: 51.3%
Cc1ccc(-c2cc(C(=O)NCC3CCCO3)c3ccccc3n2)cc1C (configuration not stated) | inconclusive: -42.4%
